Reference: PubChem BioAssay AID445 (National Center for Advancing Translational Sciences (NCATS), 2006)
About 40 (0.04%) of roughly 110,000 compounds were called active. Inconclusive means that the source gave no clear call. Such entries were picked first, then a sample of the others. The call rests on the fitted dose curve; in most records, active means well fitted curve in the direction sought with a large enough effect in the signal ratio (not every such curve was filed as active); inconclusive means small, poorly fitted or top-dose-only effect, or a change in a side signal; inactive means flat fitted curve, though single readings scatter; the % refers to the signal ratio. Potencies of inconclusive entries are doubtful fits and often do not repeat.

Assay: IkB Signaling;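 on IkBa stabilization activation: 0% = basal untreated cells and 100% = reference inhibitor full response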
Details: ABC-DLBCL IkBa-CBG/CBR dual luciferase ratio (green luciferase fused to IkBa over red control in OCI-Ly3 lymphoma cells), 4 h; IkBa stabilization activation: at 57.1 µM (top of the series), scaled: untreated 0%, proteasome inhibitor 100% unless noted
In short: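 Luminescence ratio of IκBα-fused green versus native red beetle luciferase in OCI-Ly3 cells, 4 h post-doxycycline with compound; red signal alone, scaled from basal (0%) to zero light (-100%), flagged nonspecific or cytotoxic effects.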
Potency means the concentration at half of the fitted maximal effect.

| SMILES | Potency | IkBa stabilization activation |
| --- | --- | --- |
| O=C(CSc1nnnn1-c1ccccc1)CC(=O)Nc1ccc(Cl)cc1 | inconclusive: 0.0631 µM [signal inhibitor, full curve] | – |
| O=S(=O)(Nc1cccnc1)c1cccc2cccnc12 | – | inactive: -0.602% |
| Cc1[nH]nc2c1C(c1ccccc1F)CC(=O)N2 (stereo not drawn) | – | inactive: -0.519% |
| COCCn1c(=O)c(-c2ccccc2)nc2cnc(OC)nc21 | – | inactive: 1.42% [at 11.4 µM, scaled: untreated 0%, proteasome inhibitor 100%] |
| COc1ccc(OC)c(CCNC(=O)c2cnn(-c3ccccc3)c2-n2cccc2)c1 | – | inactive: 2% |
| Cc1csc(NC(=O)CSc2nnc(-c3ccncc3)o2)n1 | inconclusive: 31.6 µM [rising, partial curve] | – |
| COc1ccccc1-c1noc(-c2ccncc2)n1 | – | inactive: 4.67% |
| Cc1nc2ccc3nc(NC(=O)C4COc5ccccc5O4)sc3c2s1 (stereo not drawn) | – | inconclusive: 14.3% [signal inhibitor] |
| CC(C)S | – | inactive: -0.703% |
| CCOC(=O)C1CCCN(C(=O)c2ccccc2NC(=O)c2nsc3ccccc23)C1 (stereo not drawn) | – | inconclusive: -0.438% [signal inhibitor] |
| CCOc1ccc(C2CC(=O)c3c([nH]c(C(=O)OCCOc4ccccc4)c3C)C2)cc1 (stereo not drawn) | – | inactive: -3.45% |
| Cc1nnc2c3ccccc3nc(N3CCN(c4ccccc4)CC3)n12 | – | inactive: -3.21% |
| CCN1CCN(C(c2cccs2)C(C)NC(=O)c2cccc(OC)c2OC)CC1 (stereo not drawn) | – | inactive: -0.305% |
| Cn1c(CN2CCCCC2)nc2cc(NC(=O)c3cccs3)ccc21 | – | inconclusive: 3.51% [signal inhibitor] |
| Cc1ccccc1Cn1nnc2c(=O)[nH]c(C3CCCN(C(=O)c4ccc(C(C)(C)C)cc4)C3)nc21 (stereo not drawn) | – | inconclusive: 2.64% [signal inhibitor] |
| O=C(c1ccc2c(c1)N(Cc1cccc(Cl)c1)C(=O)c1ccccc1S2(=O)=O)N1CCCC1 | – | inactive: -1.01% |
| Cc1nnc(NC(=O)CSc2nnc(Cc3cccn3C)n2-c2cccc(C)c2C)s1 | – | inactive: 1.52% |
| CCCN1C(=O)c2ccccc2NC1c1ccc(OC)cc1O (stereo not drawn) | – | inactive: -1.02% |
| CCOc1ccc(N2CC(NC(=O)Cc3cccs3)CC2=O)cc1 (stereo not drawn) | – | inconclusive: -0.599% [signal inhibitor] |
| CC(=O)NCCNc1nc(-c2ccccc2C)nc2ccccc12 | – | inactive: 1.35% [at 11.4 µM, scaled: untreated 0%, proteasome inhibitor 100%] |
| O=S(=O)(c1ccc2c(c1)OCCO2)N1CCN(c2nc3ccccc3s2)CC1 | – | inactive: 4.23% |
| CN(Cc1ccccc1)c1ccc2cc(S(=O)(=O)N3CCCCC3)ccc2n1 | – | inactive: 0.755% |
| Cc1ccc(C)c(CSc2cn(CC(=O)N3CCCC3)c3ccccc23)c1 | – | inconclusive: -0.524% [signal inhibitor] |
